# Variants at the background level are over-represented here.
# B1: TPR 5TU (parent)
# chain: GGAUCUUCUCGAUCUAACAAAAAAGACAAAUCUGCCACAAAGCUUGAGAGCAUCUUCGGAUGCAGAGGCGGCAGCCUUCGGUGGCGCGAUAGCGCCAACGUUCUCAACUAUGACACGCAAAACGCGUGCUCCGUUGAAUGGAGUUUAUCAUG
# Variants of: B1
# Experiment: polymerase ribozyme fitness, log enrichment relative to wild type (log ratio); higher = more active; in vitro selection for triplet polymerase activity
# Method in brief: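 For each subunit of a heterodimeric triplet polymerase ribozyme, a mutant library was built by PCR and transcribed, then taken through a single in vitro selection round in triplicate. Selection involved annealing to a biotinylated primer, the partner subunit and triplets, incubation frozen at −7 °C, gel excision of extended constructs, capture on streptavidin beads and RT-PCR. Genotypes were retained after Illumina sequencing of inputs and outputs only with ≥10 input reads and ≥1 read in each output. Fitness is defined as the logarithm of a genotype's enrichment relative to wild-type enrichment, using inverse-variance-weighted averages across replicates, with the logarithm taken to base 2.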
row,Variant,polymerase ribozyme fitness (log ratio)
1,A17G A29U C87G C118A U148G,≤ -4.2
2,A17G A29U G42A C87U G100U A110C A115C A120G U134A,≤ -4.2
3,A17G A30G C35U G50C A91U C105G C114A U144G,≤ -4.2
4,A17G A30G C35U G50C C69A C75G C87G G143A U151G,≤ -4.2
5,A17G A30G C36A C99A,≤ -4.2
6,A17G A30G C36U G62C G94U A120U A121G,≤ -4.2
7,A17G A30U A52C G81A,≤ -4.2
8,A17G A37G A49C U77G U148G,≤ -4.2
9,A17G A37U A47U C85U,-1.62
10,A17G A37U C87U C99A C123U,-3.98
11,A17G A37U U82C C96A,-2.2
12,A17G A39C A52G U55A C75U U77A C87A,≤ -4.2
13,A17G A40C A47C C54G G67A C85U G86C C95A U144A U145C,≤ -4.2
14,A17G A40U C87U C103G A115U C125U G133C,≤ -4.2
15,A17G A41U G58C G59A U77A G84U A97U U102A C149G,≤ -4.2
16,A17G A47C C79G,≤ -4.2
17,A17G A49C C87G C123G G141A,≤ -4.2
18,A17G A49C G58A C85G C87G,≤ -4.2
19,A17G A49C G59U G92A A113G A119U,-4.03
20,A17G A52C C54A G67A C85G C93G C118A G128A,≤ -4.2
21,A17G A52G A73C A97U,≤ -4.2

row,Variant,polymerase ribozyme fitness (log ratio)
1,A17G A52G U53G G59A A97U,≤ -4.2
2,A17G A52U A64U G65A G86C A107C G128A,≤ -4.2
3,A17G A60G C85G A89U,-2.31
4,A17G A64G A110U G136U,≤ -4.2
5,A17G A89G,-0.582
6,A17G C18A C69G U101G C105U A120U A142U,-1.71
7,A17G C18A G84C C93U,-3.84
8,A17G C18G A64G C85A G100A A106U A119U,≤ -4.2
9,A17G C27A A89C A115U,≤ -4.2
10,A17G C27A C35G C75A G86C A142G,≤ -4.2
11,A17G C27G C57G A60U U61A C69U G70A C79U A142C C149U,≤ -4.2
12,A17G C27U A30G U45G C57U G83U G88A,≤ -4.2
13,A17G C27U A49U C79A G83U C87U A120U,≤ -4.2
14,A17G C27U A49U G71U G83U C85G G140A U148A,≤ -4.2
15,A17G C32A A49C G83U A107G G143U,≤ -4.2
16,A17G C32U A49U C51U U55G,≤ -4.2
17,A17G C32U C36A C96U A115C,≤ -4.2
18,A17G C35A C69A A91C G100A,≤ -4.2
19,A17G C35G G94C A119U U139G,≤ -4.2
20,A17G C35G U55A U61A U90G G100C U139A,≤ -4.2
21,A17G C35U A41U A49C C95G A98U A110G A115C G117U A120G,≤ -4.2

row,Variant,polymerase ribozyme fitness (log ratio)
1,A17G C35U A49U G74A A91G A122U A137C G140A,≤ -4.2
2,A17G C35U G83A,-0.796
3,A17G C38U G58U G68U A110U,≤ -4.2
4,A17G C43A C54U C93G,≤ -4.2
5,A17G C43A C75A,≤ -4.2
6,A17G C51G G143C,≤ -4.2
7,A17G C51G U55A C57U G92U C103A C108A,≤ -4.2
8,A17G C51U C54U G74A G88U C96G,≤ -4.2
9,A17G C54G,-1.5
10,A17G C54G G68A C93G A120U G140U,≤ -4.2
11,A17G C54G U55C C69U G71C G84A C93A,≤ -4.2
12,A17G C57U C96U U127C C131A G133U U146C,≤ -4.2
13,A17G C57U G58U A60C C76G C108G G143C U151C,≤ -4.2
14,A17G C69G C85G A107C A122G,≤ -4.2
15,A17G C69U C95U C116U G133A,≤ -4.2
16,A17G C75U C95U,0.0451
17,A17G C76A C87A C123U U151G,≤ -4.2
18,A17G C79A G80C U109C,≤ -4.2
19,A17G C85G,-1.33
20,A17G C85U A115U C125A U144G A150C,≤ -4.2
21,A17G C93A,-2.46

row,Variant,polymerase ribozyme fitness (log ratio)
1,A17G C93A A106G,-1.94
2,A17G C93G,-2.89
3,A17G C93G U102G A120U C129U,≤ -4.2
4,A17G C96A A119U,-0.596
5,A17G G25A C32G G80U,≤ -4.2
6,A17G G25C G50A G86A C93G,≤ -4.2
7,A17G G42A U45A A47C C85U U102G G141A U146C C149A,≤ -4.2
8,A17G G46A C69A A121G,-3.45
9,A17G G48C G133A C149G,≤ -4.2
10,A17G G50C A137G U144G,≤ -4.2
11,A17G G50C C51G G88U C96U C108G,≤ -4.2
12,A17G G58C U61G G71U G86C U104G G143C,≤ -4.2
13,A17G G58U C99A C114U A115G,≤ -4.2
14,A17G G59A G143C,-1.26
15,A17G G59U A97C C99G,-2.61
16,A17G G67C G86A,≤ -4.2
17,A17G G70C G86C,≤ -4.2
18,A17G G84A,-0.469
19,A17G G86A,-0.889
20,A17G G88C C114A U127C,≤ -4.2
21,A17G G100U,-4.01

# From the RNAGym collection of RNA variant scans (doi:10.1073/pnas.2313332121)
